Data: patent publication US9975943B2, “Polypeptides” (AFFIBODY AB, priority 2013, dated 2018)
Read-outs that look alike come from different tables or passages of the source.

Target: human FcRn (Homo sapiens, UniProt P55899)
Test: ELISA KD titration analysis of Z-ABD variants from the maturation
Type: binding
Set-up: purchased Biorbyt orb84388
Conditions: Z-ABD variants in periplasm
Experimental: A selection of FcRn binders was subjected to an analysis of the response against a dilution series of biotinylated human FcRn using ELISA at both pH 6.0 and pH 7.4 as described above. […] As a background control, all Z variants were also assayed with no target protein added. […] Periplasm containing the ABD moiety only was used as a negative control. Data were analyzed using GraphPad Prism 5 and non-linear regression and KD values (the half maximal effective concentration) were calculated.

| Kd (pH 6.0, read-out: KD pH 6.0) [nM] | Kd (pH 7.4, read-out: KD pH 7.4) [nM] | Substance |
| --- | --- | --- |
| 2.4 | 7.6 | Z13742: FcRn binding Z variant from the maturated library (VDAKYAKELSTAAHEIRWLPNLTFDQRVAFIHKLRDDPSQSSELLSEAKKLNDSQAPK; Engineered FcRn binding polypeptide) |
| 1.3 | 2.3 | Z13747: FcRn binding Z variant from the maturated library (VDAKYAKEIEEAGHEIRWLPNLTFDQRVAFIHKLRDDPSQSSELLSEAKKLNDSQAPK; Engineered FcRn binding polypeptide) |
| 2.8 | 12 | Z13749: FcRn binding Z variant from the maturated library (VDAKYAKELQTASHEIRWLPNLTFDQRVAFIHKLRDDPSQSSELLSEAKKLNDSQAPK; Engineered FcRn binding polypeptide) |
| 2.7 | 8.4 | Z13750: FcRn binding Z variant from the maturated library (VDAKYAKEQDSAAHEIRWLPNLTFDQRVAFIRKLRDDPSQSSELLSEAKKLNDSQAPK; Engineered FcRn binding polypeptide) |
| 2 | 3.8 | Z13751: FcRn binding Z variant from the maturated library (VDAKYAKESASAGHEIRWLPNLTFDQRVAFIHKLRDDPSQSSELLSEAKKLNDSQAPK; Engineered FcRn binding polypeptide) |
| 1.9 | 6.5 | Z13758: FcRn binding Z variant from the maturated library (VDAKYAKEVQEAAHEIRWLPNLTFDQRVAFIHKLWDDPSQSSELLSEAKKLNDSQAPK; Engineered FcRn binding polypeptide) |
| 2 | 2.9 | Z13792: FcRn binding Z variant from the maturated library (VDAKYAKEIEVAAHEIRWLPNLTFDQRVAFIHKLRDDPSQSSELLSEAKKLNDSQAPK; Engineered FcRn binding polypeptide) |
| 2.3 | 4.2 | Z13796: FcRn binding Z variant from the maturated library (VDAKYAKERAEAAHEIRWLPNLTFDQRVAFIHKLRDDPSQSSELLSEAKKLNDSQAPK; Engineered FcRn binding polypeptide) |
| 1.9 | 5.6 | Z13799: FcRn binding Z variant from the maturated library (VDAKYAKESELAAHEIRWLPNLTFDQRVAFIWKLRDDPSQSSELLSEAKKLNDSQAPK; Engineered FcRn binding polypeptide) |
| 2.4 | 5.5 | Z13808: FcRn binding Z variant from the maturated library (VDAKYAKETANAAHEIRWLPNLTFDQRVAFIHKLRDDPSQSSELLSEAKKLNDSQAPK; Engineered FcRn binding polypeptide) |
| 2.9 | 3.8 | Z13823: FcRn binding Z variant from the maturated library (VDAKYAKEHDDAAHEIRWLPNLTFDQRVAFIHKLRDDPSQSSELLSEAKKLNDSQAPK; Engineered FcRn binding polypeptide) |
| 1.9 | 3.8 | Z13824: FcRn binding Z variant from the maturated library (VDAKYAKEWYSAAHEIRWLPNLTFDQRVAFIHKLRDDPSQSSELLSEAKKLNDSQAPK; Engineered FcRn binding polypeptide) |
| 2.6 | 5.4 | Z13838: FcRn binding Z variant from the maturated library (VDAKYAKEISDAAHEIRWLPNLTFDQRVAFIHKLRDDPSQSSELLSEAKKLNDSQAPK; Engineered FcRn binding polypeptide) |
| 2.2 | 5.5 | Z13842: FcRn binding Z variant from the maturated library (VDAKYAKEISQAAHEIRWLPNLTFDQRVAFIHKLRDDPSQSSELLSEAKKLNDSQAPK; Engineered FcRn binding polypeptide) |
